± gives the standard deviation of the averaged measurements. The list shows a part of the results.
test system: PfAP2-G AP2 domain (GST-tagged); assay: gcPBM binding intensity (ln(normalized median fluorescence intensity)); higher = stronger DNA binding
Method in brief: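 Probes on an Agilent 4 × 180k array were primer-extended, double-stranded and 36 bp long, taken from intergenic genomic regions, with negative controls added. GST-tagged P. falciparum DNA-binding domains from E. coli, about 25 μg on average, were applied to the array for 1 h in 1× PBS containing 1% milk, 0.2 mg/ml BSA, 0.5% salmon testes DNA and 0.03% Triton X-100. Binding intensity, obtained after Alexa488 anti-GST antibody detection and a 488 nm scan, is the highest Masliner-normalised natural-log median intensity across replicate spots of either probe orientation.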

Sequence	gcPBM binding intensity (ln)
AAATTTAAATAATGTGCGCATCTTAATATATATAAG [GTGCAC_site9890]	10.2 ± 0.13
AAATAATATTGAAAAGTGCATATTTTTGTTGATATA	10.04 ± 0.071
CATATAAATAGACACACACACACATATAAATAAATA [CACACA_site7156]	10.2 ± 0.16
TCTTATAACAAAAAAAAATAAAAAATAAAACTATAT [GTGCAC_negctrl_site11]	9.55 ± 0.29
TCATTCAAAAAAAATCAACACACAGTTACATAGCTC [CACACA_site8700]	9.79 ± 0.11
GTTTTTTTTATATATTGTACAAATAATATATTATAT [XGTACX_site29]	10.9 ± 0.46
AGGTTGAATATATATTTGTGATTATATTATTTTATT [CACACA_negctrl_site778]	9.755 ± 0.092
TATATATATATATAATGTACAAACTCCTTTATATAT [XGTACX_site4545]	10.6 ± 0.4
CCATGTCAAACATTTGCACACAAAAAAATAAAAATT [CACACA_site4546]	10.2 ± 0.31
TCATATATATTATACACACACATATATAAATATATA [CACACA_site967]	10 ± 0.23
AAAAAAAAAAAAAAAGCACACATATAAATATGAATA [CACACA_site8391]	10.3 ± 0.23
TTTTAAAAAAAAAAAATAAATAAATAAGATATTATC [CACACA_negctrl_site1791]	9.45 ± 0.27
TTTTAAAACTACATTGGTACACAATAAAAAAAAAAA [XGTACX_site2793]	11.2 ± 0.73
AATATAAACACAAACACACACATATATATATATATA [CACACA_site4307]	10.2 ± 0.49
AACACCAAACTAAATGTACACACATACATAAATATA [CACACA_site8298]	11.3 ± 0.86
TTATTTAAACAAATCACACACAAATATAAATACATA [CACACA_site5158]	10.1 ± 0.16
GAAAATTCATAAAAATGTACTTATTATATTATTTAT [XGTACX_site2169]	10.9 ± 0.57
AAAGGTTTGCGTTGTGTGCACAAAATAAATATATAA	10.6 ± 0.26
GATATATAACTTTTAACACACAAAAAAAAAAAAAAT [CACACA_site7653]	10 ± 0.26
TAAAATTATGTAATAACACACATATACAATACATAT [CACACA_site1236]	10.11 ± 0.042
TTTATGAAACAGTGCACACATAAAAATAAATACATA [CACACA_site5631]	10.6 ± 0.28
TTATTTTAAATTAACACATGCATAATATATGTATAT [TGCATGCA_site597]	9.75 ± 0.028
TTTTTTATTTAAAGTAGTACTTTTTAGAAAACAAAA [XGTACX_site6759]	11.3 ± 0.87

Sequence	gcPBM binding intensity (ln)
ATTCTAAATATGTATATACACACTTTTAATATTCAT [CACACA_site4118]	10.1 ± 0.035
AAAAAAATTTTAAAATGTACAAATTTTAATATATAT [XGTACX_site7628]	10.7 ± 0.33
TTTTCAAAAATATACACACACATAAATATATGTATA [CACACA_site777]	9.9 ± 0.099
AAATATTTATATGTTACACACTGTTTATAATTTTCT [CACACA_site4868]	9.83 ± 0.18
AATTATGCACAAATCACACATATAAAATAAAAAGTG [CACACA_site4474]	10.4 ± 0.29
CAATGTATTTAGAATACATGCATATTTTCATAATGT [TGCATGCA_site221]	9.89 ± 0.16
AAAAAAAAAAAACACACACACACAAATACATACACA [CACACA_site706]	10.2 ± 0.23
AAATCCATATAGGATTGTACATATATTATATATATA [XGTACX_site8818]	10.7 ± 0.52
CAAAATGTTAAAGATACACACCTAACAAACACAAAA [CACACA_site4685]	10.4 ± 0.28
AATTCTTTACTATTCACACATATAAATATTCACTTT [CACACA_site4886]	9.93 ± 0.18
ACATATATATTTATATGTACATATATTTATATATAT [XGTACX_site7469]	11.2 ± 0.83
AAAAATATTTAAAATACACACATATCTATAATATAT [CACACA_site7032]	9.835 ± 0.049
GTGGTATAAATTTTATGTACTTAATAACTCATTAAT [XGTACX_site5555]	11.3 ± 0.84
ATATAGTTTCACATGTGTACATAAAAATACACTTGT [XGTACX_site3339]	11.5 ± 1
ACAAAAATGAGATGGTGTACGCACAAATAAATAATA [XGTACX_site5221]	11.7 ± 0.79
TTTAATTTATATAATGATATTAAGTTGGTTATTAGG [CACACA_negctrl_site329]	9.84 ± 0.18
AAAATATTTCTTCTTTGTACTTATATATATTTAATT [XGTACX_site5446]	11.3 ± 0.77
TATTCATATTCCAAGTGTACACATAAATCCCTAATA [XGTACX_site4131]	11.5 ± 0.9
CATCCAAAAATATTATGTACTAAATTTGGATGTATT [XGTACX_site3954]	10.9 ± 0.61
TATAAAATTATGTGTACACAAATATAACTTTTCTTT [CACACA_site5554]	11.7 ± 0.95
AAATAATATCATAAATGTACATATATCATATTATTA [XGTACX_site5372]	10.8 ± 0.55
TACTTACCTATAATAACACACAAGAAAAAAATAAAA [CACACA_site6616]	10.1 ± 0.37
TATGCTTCAAAATTGTGTACATATATAATATATTAT [XGTACX_site6760]	11.4 ± 0.76

Sequence	gcPBM binding intensity (ln)
ATAATAACTTGTAAGGTGCATTTTATGTTTTCTTAA	10.1 ± 0.3
AGAAATAATATTATTCAAGTATTTATTTAATTTTCA [GTGCAC_negctrl_site475]	9.5 ± 0.24
CTCATCCTTACATACACACACATATATTTATTTATA [CACACA_site6202]	10.17 ± 0.071
AAATTATAGAATCATTGTACTTTTTTTTTTTTTTTT [XGTACX_site1280]	11.5 ± 0.79
CAAATATATATTTATTGTACATATTGTTTATATGGT [XGTACX_site5246]	11 ± 0.61
TTAATAATTATAACATGTACATACACTAAATTTTTT [XGTACX_site8953]	11.3 ± 0.73
AATGTATATAGAAACATGCACACGTGGTTGTATATA [CACACA_site3278]	10.32 ± 0.042
TTGTGTTAACTACCATGTACTTATACATCATAGGAA [XGTACX_site6627]	11 ± 0.64
TCCTACATATAAAAATGTACCCATTGTTTTTTTTTT [XGTACX_site7205]	11.1 ± 0.64
TATATATATATATATACACACATATACATATTGTTT [CACACA_site3499]	10.2 ± 0.57
TTTTTGTATGCTTCCCGATTACATTATGTTGTAAAT [CACACA_negctrl_site227]	10.12 ± 0.014
ATTTATGTTATATATACACACACAAAAGAAAAAAAA [CACACA_site8977]	10.2 ± 0.37
ATATCCGTTCAAAGATGTACATATATATTCTATAGA [XGTACX_site5354]	11.3 ± 0.57
AATGCAAATAATAAAACACACAAAAAAAAGAAAAAA [CACACA_site1184]	9.86 ± 0.028
TCATACAAACCTATTTGTACATAAGTATAATATATA [XGTACX_site4284]	10.7 ± 0.49
ATACATATAAAAAAGTGTACATATTAAAATAAGTAT [XGTACX_site1310]	11.6 ± 1.1
TTTTTTATAAATCAAATGAAAAATAAACTATTCAGA [CACACA_negctrl_site1568]	9.85 ± 0.23
ATAATATAAACATACACACACACATCTATATTTATA [CACACA_site7381]	9.945 ± 0.021
TTATGTTATATAAAAAGTACAAATTTTTTTTAATTA [XGTACX_site3435]	11.1 ± 0.83
ATTATTATTATATATGCATGTAAAATATTAAAGTAC [TGCATGCA_site914]	10.5 ± 0.45
TATTGCCCTGGACACACACACATATATATATATATA [CACACA_site5389]	10.8 ± 0.57
CACAAAAATTTATACACACACATATATAATATATAT [CACACA_site152]	10.1 ± 0.18
AAGGATATGAAAAGTAGTACAAAATTTAGAACACCC [XGTACX_site4758]	11.5 ± 0.67

Sequence	gcPBM binding intensity (ln)
ATTATATTCTCCTTCACACACAAAAATATTTCATCA [CACACA_site5326]	10.1 ± 0.11
TTACGATTAAATATAACACACAACATATTTTTAATA [CACACA_site2967]	9.855 ± 0.049
ATCTTTTACGAATACACACACATAAAGAAAAAAAAA [CACACA_site1331]	10.2 ± 0.23
AAGTATTACAACCACACACACACCTATATATCATAG [CACACA_site7878]	10.3 ± 0.25
TTGATATATAATAATACACACTTACATAATTAATTA [CACACA_site4320]	10.1 ± 0.16
ATTTCAAATTAATTTACACACTTCATACTAAAAGAC [CACACA_site3176]	10.1 ± 0.2
TAAATACAGACATATACACACATATATATATATATA [CACACA_site4382]	10.1 ± 0.2
TTTCAATTTATCAGTGTGCACAAAAATAAAATAAAA	10.7 ± 0.6
ATGTATATGTTTTGTTGTACAAGTATTTTATATCTT [XGTACX_site3588]	11.3 ± 0.78
TGAATTTAGATATATACACACAAAAGTAAATACAAT [CACACA_site5548]	10.1
TAAAGATGTATTTATTCACACATCTCATATAATGAA [CACACA_site5229]	9.785 ± 0.035
TTATGTATCCTTATAAGAAAAAAAAAAAAATTCTCT [CACACA_negctrl_site1183]	9.85 ± 0.15
AATAAAAATATAGGCACACATATTAAAATGAACTTA [CACACA_site830]	10.2 ± 0.18
GTATAAAAATTATATACACACAACAGAATTACATAT [CACACA_site133]	10.17 ± 0.057
GTTTATTGATTTATTTGTACTTATATATATATTTCA [XGTACX_site5098]	11.3 ± 0.67
AATATATACATACATACATGCATACATATATATAAC [TGCATGCA_site371]	10.1 ± 0.16
TTTAAATATATTCAATCACACACATTCGTTTTTTTT [CACACA_site7962]	9.77 ± 0.24
GAATATTAAACAAACACACACACATATATATATATA [CACACA_site3382]	10.1 ± 0.26
AGTAGTCTGGAGAAAAGTACACAGTATCTGGTAACC [XGTACX_site2035]	11.6 ± 1
TATAAATAGATATATACACACATTTTTAATGATAAA [CACACA_site7299]	9.85 ± 0.13
